# Data from the supplement of paper PMC11876631.
# ± gives the standard deviation of the averaged measurements. Laboratory Escherichia coli strains with one amino-acid change in an essential protein, pooled on minimal glucose agar with carbenicillin or gentamicin at twice the control MIC (plus kanamycin and chloramphenicol for the plasmids), 48 h. Fold change of barcode share against drug-free plates; higher = less susceptible. Active = above 20 in both replicates (the paper's putatively resistant). '<' = one read or none on drug, '>' = one read or none on a drug-free plate. Shares are relative, so most strains fall below 1 when a few take over. Listed are strains with at least 15 reads on both drug-free plates, and hits; most hits rest on fewer reference reads. Replicate rank correlation about 0.5. Edits are read from barcodes.
# Target: Escherichia coli (laboratory strain)
# Experiment: barcode share on antibiotic plates over drug-free plates; higher = less susceptible
# Protocol: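 A pool of E. coli strains, each edited to carry one amino-acid change in an essential protein, was grown for 48 h on minimal glucose agar with or without antibiotic; strain barcodes were sequenced; mean of two replicates.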
# [1] = antibiotic: carbenicillin, 2× MIC (3.1 µg/mL)
# [2] = antibiotic: gentamicin, 2× MIC (MIC 0.45 µg/mL)
Protein,fold change of barcode share [1],fold change of barcode share [2]
aroC V339Q (protein) MAGNTIGQLFRVTTFGESHGLALGCIVDGVPPGIPLTEADLQHDLDRRRPGTSRYTTQRREPDQVKILSGVFEGVTTGTSIGLLIENTDQRSQDYSAIKDVFRPGHADYTYEQKYGLRDYRGGGRSSARETAMRVAAGAIAKKYLAEKFGIEIRGCLTQMGDIPLDIKDWSQVEQNPFFCPDPDKIDALDELMRALKKEGDSIGAKVTVVASGVPAGLGEPVFDRLDADIAHALMSINAVKGVEIGDGFDVVALRGSQNRDEITKDGFQSNHAGGILGGISSGQQIIAHMALKPTSSITVPGRTINRFGEEVEMITKGRHDPCVGIRAVPIAEAMLAIQLMDHLLRQRAQNADVKTDIPRW,0.402 ± 0.16,–
lptA V121A (protein) MKFKTNKLSLNLVLASSLLAASIPAFAVTGDTDQPIHIESDQQSLDMQGNVVTFTGNVIVTQGTIKINADKVVVTRPGGEQGKEVIDGYGKPATFYQMQDNGKPVEGHASQMHYELAKDFAVLTGNAYLQQVDSNIKGDKITYLVKEQKMQAFSDKGKRVTTVLVPSQLQDKNNKGQTPAQKKGN,0.273 ± 0.044,0.00589 ± 0.00036
lolE V292Q (protein) MAMPLSLLIGLRFSRGRRRGGMVSLISVISTIGIALGVAVLIVGLSAMNGFERELNNRILAVVPHGEIEAVDQPWTNWQEALDHVQKVPGIAAAAPYINFTGLVESGANLRAIQVKGVNPQQEQRLSALPSFVQGDAWRNFKAGEQQIIIGKGVADALKVKQGDWVSIMIPNSNPEHKLMQPKRVRLHVAGILQLSGQLDHSFAMIPLADAQQYLDMGSSVSGIALKMTDVFNANKLVRDAGEVTNSYVYIKSWIGTYGYMYRDIQMIRAIMYLAMVLVIGVACFNIVSTLQMAVKDKSGDIAVLRTLGAKDGLIRAIFVWYGLLAGLFGSLCGVIIGVVVSLQLTPIIEWIEKLIGHQFLSSDIYFIDFLPSELHWLDVFYVLVTALLLSLLASWYPARRASNIDPARVLSGQ,0.219 ± 0.08,< 0.0124
lolE F319A (protein) MAMPLSLLIGLRFSRGRRRGGMVSLISVISTIGIALGVAVLIVGLSAMNGFERELNNRILAVVPHGEIEAVDQPWTNWQEALDHVQKVPGIAAAAPYINFTGLVESGANLRAIQVKGVNPQQEQRLSALPSFVQGDAWRNFKAGEQQIIIGKGVADALKVKQGDWVSIMIPNSNPEHKLMQPKRVRLHVAGILQLSGQLDHSFAMIPLADAQQYLDMGSSVSGIALKMTDVFNANKLVRDAGEVTNSYVYIKSWIGTYGYMYRDIQMIRAIMYLAMVLVIGVACFNIVSTLVMAVKDKSGDIAVLRTLGAKDGLIRAIAVWYGLLAGLFGSLCGVIIGVVVSLQLTPIIEWIEKLIGHQFLSSDIYFIDFLPSELHWLDVFYVLVTALLLSLLASWYPARRASNIDPARVLSGQ,0.221 ± 0.055,< 0.0116
lolE L371Q (protein) MAMPLSLLIGLRFSRGRRRGGMVSLISVISTIGIALGVAVLIVGLSAMNGFERELNNRILAVVPHGEIEAVDQPWTNWQEALDHVQKVPGIAAAAPYINFTGLVESGANLRAIQVKGVNPQQEQRLSALPSFVQGDAWRNFKAGEQQIIIGKGVADALKVKQGDWVSIMIPNSNPEHKLMQPKRVRLHVAGILQLSGQLDHSFAMIPLADAQQYLDMGSSVSGIALKMTDVFNANKLVRDAGEVTNSYVYIKSWIGTYGYMYRDIQMIRAIMYLAMVLVIGVACFNIVSTLVMAVKDKSGDIAVLRTLGAKDGLIRAIFVWYGLLAGLFGSLCGVIIGVVVSLQLTPIIEWIEKLIGHQFLSSDIYFIDFQPSELHWLDVFYVLVTALLLSLLASWYPARRASNIDPARVLSGQ,0.155 ± 0.15,0.0234 ± 0.016
lolE M293P (protein) MAMPLSLLIGLRFSRGRRRGGMVSLISVISTIGIALGVAVLIVGLSAMNGFERELNNRILAVVPHGEIEAVDQPWTNWQEALDHVQKVPGIAAAAPYINFTGLVESGANLRAIQVKGVNPQQEQRLSALPSFVQGDAWRNFKAGEQQIIIGKGVADALKVKQGDWVSIMIPNSNPEHKLMQPKRVRLHVAGILQLSGQLDHSFAMIPLADAQQYLDMGSSVSGIALKMTDVFNANKLVRDAGEVTNSYVYIKSWIGTYGYMYRDIQMIRAIMYLAMVLVIGVACFNIVSTLVPAVKDKSGDIAVLRTLGAKDGLIRAIFVWYGLLAGLFGSLCGVIIGVVVSLQLTPIIEWIEKLIGHQFLSSDIYFIDFLPSELHWLDVFYVLVTALLLSLLASWYPARRASNIDPARVLSGQ,0.141 ± 0.05,0.00862 ± 0.0073
lolE L371A (protein) MAMPLSLLIGLRFSRGRRRGGMVSLISVISTIGIALGVAVLIVGLSAMNGFERELNNRILAVVPHGEIEAVDQPWTNWQEALDHVQKVPGIAAAAPYINFTGLVESGANLRAIQVKGVNPQQEQRLSALPSFVQGDAWRNFKAGEQQIIIGKGVADALKVKQGDWVSIMIPNSNPEHKLMQPKRVRLHVAGILQLSGQLDHSFAMIPLADAQQYLDMGSSVSGIALKMTDVFNANKLVRDAGEVTNSYVYIKSWIGTYGYMYRDIQMIRAIMYLAMVLVIGVACFNIVSTLVMAVKDKSGDIAVLRTLGAKDGLIRAIFVWYGLLAGLFGSLCGVIIGVVVSLQLTPIIEWIEKLIGHQFLSSDIYFIDFAPSELHWLDVFYVLVTALLLSLLASWYPARRASNIDPARVLSGQ,0.232 ± 0.057,0.788 ± 0.72
lolE M293W (protein) MAMPLSLLIGLRFSRGRRRGGMVSLISVISTIGIALGVAVLIVGLSAMNGFERELNNRILAVVPHGEIEAVDQPWTNWQEALDHVQKVPGIAAAAPYINFTGLVESGANLRAIQVKGVNPQQEQRLSALPSFVQGDAWRNFKAGEQQIIIGKGVADALKVKQGDWVSIMIPNSNPEHKLMQPKRVRLHVAGILQLSGQLDHSFAMIPLADAQQYLDMGSSVSGIALKMTDVFNANKLVRDAGEVTNSYVYIKSWIGTYGYMYRDIQMIRAIMYLAMVLVIGVACFNIVSTLVWAVKDKSGDIAVLRTLGAKDGLIRAIFVWYGLLAGLFGSLCGVIIGVVVSLQLTPIIEWIEKLIGHQFLSSDIYFIDFLPSELHWLDVFYVLVTALLLSLLASWYPARRASNIDPARVLSGQ,0.608 ± 0.055,< 0.00841
lolE M293Q (protein) MAMPLSLLIGLRFSRGRRRGGMVSLISVISTIGIALGVAVLIVGLSAMNGFERELNNRILAVVPHGEIEAVDQPWTNWQEALDHVQKVPGIAAAAPYINFTGLVESGANLRAIQVKGVNPQQEQRLSALPSFVQGDAWRNFKAGEQQIIIGKGVADALKVKQGDWVSIMIPNSNPEHKLMQPKRVRLHVAGILQLSGQLDHSFAMIPLADAQQYLDMGSSVSGIALKMTDVFNANKLVRDAGEVTNSYVYIKSWIGTYGYMYRDIQMIRAIMYLAMVLVIGVACFNIVSTLVQAVKDKSGDIAVLRTLGAKDGLIRAIFVWYGLLAGLFGSLCGVIIGVVVSLQLTPIIEWIEKLIGHQFLSSDIYFIDFLPSELHWLDVFYVLVTALLLSLLASWYPARRASNIDPARVLSGQ,0.297 ± 0.033,0.00664 ± 0.00063
lolE L371P (protein) MAMPLSLLIGLRFSRGRRRGGMVSLISVISTIGIALGVAVLIVGLSAMNGFERELNNRILAVVPHGEIEAVDQPWTNWQEALDHVQKVPGIAAAAPYINFTGLVESGANLRAIQVKGVNPQQEQRLSALPSFVQGDAWRNFKAGEQQIIIGKGVADALKVKQGDWVSIMIPNSNPEHKLMQPKRVRLHVAGILQLSGQLDHSFAMIPLADAQQYLDMGSSVSGIALKMTDVFNANKLVRDAGEVTNSYVYIKSWIGTYGYMYRDIQMIRAIMYLAMVLVIGVACFNIVSTLVMAVKDKSGDIAVLRTLGAKDGLIRAIFVWYGLLAGLFGSLCGVIIGVVVSLQLTPIIEWIEKLIGHQFLSSDIYFIDFPPSELHWLDVFYVLVTALLLSLLASWYPARRASNIDPARVLSGQ,1.14 ± 0.91,< 0.00687
lolE M293A (protein) MAMPLSLLIGLRFSRGRRRGGMVSLISVISTIGIALGVAVLIVGLSAMNGFERELNNRILAVVPHGEIEAVDQPWTNWQEALDHVQKVPGIAAAAPYINFTGLVESGANLRAIQVKGVNPQQEQRLSALPSFVQGDAWRNFKAGEQQIIIGKGVADALKVKQGDWVSIMIPNSNPEHKLMQPKRVRLHVAGILQLSGQLDHSFAMIPLADAQQYLDMGSSVSGIALKMTDVFNANKLVRDAGEVTNSYVYIKSWIGTYGYMYRDIQMIRAIMYLAMVLVIGVACFNIVSTLVAAVKDKSGDIAVLRTLGAKDGLIRAIFVWYGLLAGLFGSLCGVIIGVVVSLQLTPIIEWIEKLIGHQFLSSDIYFIDFLPSELHWLDVFYVLVTALLLSLLASWYPARRASNIDPARVLSGQ,0.194 ± 0.021,0.0111 ± 0.0071
lolE L371W (protein) MAMPLSLLIGLRFSRGRRRGGMVSLISVISTIGIALGVAVLIVGLSAMNGFERELNNRILAVVPHGEIEAVDQPWTNWQEALDHVQKVPGIAAAAPYINFTGLVESGANLRAIQVKGVNPQQEQRLSALPSFVQGDAWRNFKAGEQQIIIGKGVADALKVKQGDWVSIMIPNSNPEHKLMQPKRVRLHVAGILQLSGQLDHSFAMIPLADAQQYLDMGSSVSGIALKMTDVFNANKLVRDAGEVTNSYVYIKSWIGTYGYMYRDIQMIRAIMYLAMVLVIGVACFNIVSTLVMAVKDKSGDIAVLRTLGAKDGLIRAIFVWYGLLAGLFGSLCGVIIGVVVSLQLTPIIEWIEKLIGHQFLSSDIYFIDFWPSELHWLDVFYVLVTALLLSLLASWYPARRASNIDPARVLSGQ,0.688 ± 0.083,0.00627 ± 0.0055
